# According to patent US12478634B2, “Compositions and methods for treating muscular dystrophy and other disorders” (The Charlotte Mecklenburg Hospital Authority, priority 2016, dated 2025):
# Test system: FKRPP448L mutant mice
# Assay: IIH6 staining of glycosylated α-dystroglycan in muscles of ribulose-treated mice
# Type: in vivo, mouse
# Conditions: 0.8 g/kg bodyweight ribulose intravenously weekly for 1 month
# Description: C57, normal mouse. […] Animals were treated with ribulose for 4 weeks with weekly injection of 0.8 g/kg bodyweight. Animal tissues were collected at the end of 4 weeks and processed for sections, fixed, stained with the IIH6 antibody and visualized as membrane staining for the glycosylated a-DG. […] There is wide spread staining in the majority of muscle fibers in the ribulose treated samples whereas barely any signal is observed in the control samples. The signals in the C57 mice are the strongest.
smiles,measurement,value
O=C(CO)[C@H](O)[C@H](O)CO [ribulose],membrane staining for functionally glycosylated α-dystroglycan (IIH6),the majority of the muscle fibers are positive
